The list shows a part of the results.
What was measured:
Assay in all cases: glycan array binding signal (z-score within array); higher = stronger binding
Conditions in all cases: glycan notation: IUPAC condensed, linker removed
[1] = target: GlcNAc(b1-3)Gal(b1-4)GlcNAc(b1-3)Gal(b1-4)GlcNAc(b1-2)[GlcNAc(b1-3)Gal(b1-4)GlcNAc(b1-3)Gal(b1-4)GlcNAc(b1-6)]Man(a1-6)[GlcNAc(b1-3)Gal(b1-4)GlcNAc(b1-3)Gal(b1-4)GlcNAc(b1-2)Man(a1-3)]Man(b1-4)GlcNAc(b1-4)[Fuc(a1-6)]GlcNAc
In short: (§1)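 Arrays were curated from the Consortium for Functional Glycomics database, 3228 in total, and kept only where the protein sequence was available. Binding is expressed as a within-array Z-score. This score was averaged across arrays of the same protein sequence at different concentrations or buffers and across linkers, and negative values can be read as non-binding.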

[2] = target: GlcNAc(b1-3)Gal(b1-4)GlcNAc(b1-3)Gal(b1-4)GlcNAc(b1-3)Gal(b1-4)GlcNAc(b1-2)Man(a1-3)[GlcNAc(b1-3)Gal(b1-4)GlcNAc(b1-3)Gal(b1-4)GlcNAc(b1-3)Gal(b1-4)GlcNAc(b1-2)Man(a1-6)]Man(b1-4)GlcNAc(b1-4)GlcNAc
In short: as §1

[3] = target: GlcNAc(b1-3)Gal(b1-4)GlcNAc(b1-3)Gal(b1-4)GlcNAc(b1-3)Gal(b1-4)GlcNAc(b1-2)Man(a1-3)[GlcNAc(b1-3)Gal(b1-4)GlcNAc(b1-3)Gal(b1-4)GlcNAc(b1-3)Gal(b1-4)GlcNAc(b1-2)Man(a1-6)]Man(b1-4)GlcNAc(b1-4)[Fuc(a1-6)]GlcNAc
In short: as §1

[4] = target: GlcNAc(b1-3)Gal(b1-4)GlcNAc(b1-3)Gal(b1-4)GlcNAc(b1-3)Gal(b1-4)GlcNAc(b1-2)[GlcNAc(b1-3)Gal(b1-4)GlcNAc(b1-3)Gal(b1-4)GlcNAc(b1-3)Gal(b1-4)GlcNAc(b1-6)]Man(a1-6)[GlcNAc(b1-3)Gal(b1-4)GlcNAc(b1-3)Gal(b1-4)GlcNAc(b1-3)Gal(b1-4)GlcNAc(b1-2)Man(a1-3)]Man(b1-4)GlcNAc(b1-4)[Fuc(a1-6)]GlcNAc
In short: as §1

[5] = target: GlcNAc(b1-3)Gal(b1-4)GlcNAc(b1-3)Gal(b1-4)GlcNAc(b1-3)Gal(b1-4)GlcNAc(b1-3)Gal(b1-4)GlcNAc(b1-2)Man(a1-3)[GlcNAc(b1-3)Gal(b1-4)GlcNAc(b1-3)Gal(b1-4)GlcNAc(b1-3)Gal(b1-4)GlcNAc(b1-3)Gal(b1-4)GlcNAc(b1-2)Man(a1-6)]Man(b1-4)GlcNAc(b1-4)GlcNAc
In short: as §1

[6] = target: GlcNAc(b1-3)Gal(b1-4)GlcNAc(b1-3)Gal(b1-4)GlcNAc(b1-3)Gal(b1-4)GlcNAc(b1-3)Gal(b1-4)GlcNAc(b1-2)Man(a1-3)[GlcNAc(b1-3)Gal(b1-4)GlcNAc(b1-3)Gal(b1-4)GlcNAc(b1-3)Gal(b1-4)GlcNAc(b1-3)Gal(b1-4)GlcNAc(b1-2)Man(a1-6)]Man(b1-4)GlcNAc(b1-4)[Fuc(a1-6)]GlcNAc
In short: as §1

[7] = target: GlcNAc(b1-3)Gal(b1-4)GlcNAc(b1-3)Gal(b1-4)GlcNAc(b1-3)Gal(b1-4)GlcNAc(b1-3)Gal(b1-4)GlcNAc(b1-2)[GlcNAc(b1-3)Gal(b1-4)GlcNAc(b1-3)Gal(b1-4)GlcNAc(b1-3)Gal(b1-4)GlcNAc(b1-3)Gal(b1-4)GlcNAc(b1-6)]Man(a1-6)[GlcNAc(b1-3)Gal(b1-4)GlcNAc(b1-3)Gal(b1-4)GlcNAc(b1-3)Gal(b1-4)GlcNAc(b1-3)Gal(b1-4)GlcNAc(b1-2)Man(a1-3)]Man(b1-4)GlcNAc(b1-4)[Fuc(a1-6)]GlcNAc
In short: as §1

[8] = target: GlcNAc(b1-3)Gal(b1-4)GlcNAc(b1-3)Gal(b1-4)GlcNAc(b1-3)GalNAc
In short: as §1

[9] = target: GlcNAc(b1-3)Gal(b1-4)GlcNAc(b1-3)GalNAc
In short: as §1

[10] = target: GlcNAc(b1-3)Gal(b1-4)GlcNAc(b1-3)[GlcNAc(b1-3)Gal(b1-4)GlcNAc(b1-3)]GalNAc
In short: as §1

[11] = target: GlcNAc(b1-3)Gal(b1-4)GlcNAc(b1-6)[Gal(b1-3)]GalNAc
In short: as §1

[12] = target: GlcNAc(b1-3)Gal(b1-4)GlcNAc(b1-6)[GlcNAc(b1-3)Gal(b1-3)]GalNAc
In short: as §1

[13] = target: GlcNAc(b1-3)Gal(b1-4)GlcNAc(b1-6)[GlcNAc(b1-3)]Gal(b1-4)GlcNAc
In short: as §1

[14] = target: GlcNAc(b1-3)GalNAc
In short: as §1

[15] = target: GlcNAc(b1-3)Man
In short: as §1

[16] = target: GlcNAc(b1-3)[GlcNAc(b1-4)][GlcNAc(b1-6)]GlcNAc
In short: as §1

[17] = target: GlcNAc(b1-3)[GlcNAc(b1-6)]Gal(b1-4)GlcNAc
In short: as §1

[18] = target: GlcNAc(b1-3)[GlcNAc(b1-6)]GalNAc
In short: as §1

[19] = target: GlcNAc(b1-4)Gal(b1-4)GlcNAc
In short: as §1

[20] = target: GlcNAc(b1-4)GlcNAc
In short: as §1

[21] = target: GlcNAc(b1-4)GlcNAc(b1-4)GlcNAc
In short: as §1

[22] = target: GlcNAc(b1-4)GlcNAc(b1-4)GlcNAc(b1-4)GlcNAc(b1-4)GlcNAc
In short: as §1

[23] = target: GlcNAc(b1-4)GlcNAc(b1-4)GlcNAc(b1-4)GlcNAc(b1-4)GlcNAc(b1-4)GlcNAc
In short: as §1

[24] = target: GlcNAc(b1-4)[GlcNAc(b1-6)]GalNAc
In short: as §1

[25] = target: GlcNAc(b1-6)Gal(b1-4)GlcNAc
In short: as §1

[26] = target: GlcNAc(b1-6)GalNAc
In short: as §1

[27] = target: GlcNAc6S(b1-3)Gal(b1-4)GlcNAc
In short: as §1

[28] = target: Kdn(a2-3)Gal(b1-3)GalNAc
In short: as §1

[29] = target: Kdn(a2-3)Gal(b1-3)GlcNAc
In short: as §1

[30] = target: Kdn(a2-3)Gal(b1-4)Glc
In short: as §1

[31] = target: Kdn(a2-3)Gal(b1-4)GlcNAc
In short: as §1

[32] = target: Kdn(a2-3)Gal(b1-4)[Fuc(a1-3)]GlcNAc
In short: as §1

[33] = target: Kdn(a2-6)Gal(b1-4)GlcNAc
In short: as §1

[34] = target: Man(a1-2)Man(a1-2)Man(a1-3)Man
In short: as §1

[35] = target: Man(a1-2)Man(a1-2)Man(a1-6)[Man(a1-3)]Man
In short: as §1

[36] = target: Man(a1-2)Man(a1-3)Man
In short: as §1

[37] = target: Man(a1-2)Man(a1-3)[Man(a1-2)Man(a1-6)]Man
In short: as §1

[38] = target: Man(a1-2)Man(a1-3)[Man(a1-2)Man(a1-6)]Man(a1-6)[Man(a1-2)Man(a1-2)Man(a1-3)]Man
In short: as §1

B1: Pbx1 (Cryptococcus neoformans) (protein)
chain: ATTKCLVSGDQDSINNALALGGEGTTVTLCPGSVHRLNSSIIFTAPSQTLTTLGNPKDRNRAMLVVDGEDLACAIRADCKQCSHAMIRSLVIDGNRPQLLRIPKGDALIEVGNAESQTVRDCKLYEPRGWSALHFREGDERQCRFGHIVDNEIGPCGEEWDDEYDSMDETKPLWGNPRADGISLACKDSIVERNVVYDATDGAIVLFGSAGSTVKNNHVYARTRVILGGINLVDYEPWDGDYTNVKVHHNHLYALGRYFKVGIVIGPASWSDDTESVVHSASVTDNEFSGGYWGYGIVVASAKNFEVLRNKVIWDGEQGVARFSGVPGSRCPKAPENGKPTAFLINRGSAKGIFQDDFVNGEVQHIICLNPDQDPPYKPWRFRDSPEAIAAKQAENPTANSAFDSRIAEALVSYQMSLLNSMDAMTQKVEHLTNPIVDDALPFVHEHERAEADKKARQEASRKEKESGNKDVDMLNVKVEELEKSGRRLKKALDGLKSDFEGLSGRLKKSADENKPIIETIFVTSQNLLLGATSQQN
glycan array binding signal (z-score) [1]: 0.673 | glycan array binding signal (z-score) [2]: 0.83 | glycan array binding signal (z-score) [3]: 1.29 | glycan array binding signal (z-score) [4]: -0.012 | glycan array binding signal (z-score) [5]: -0.206 | glycan array binding signal (z-score) [6]: 0.554 | glycan array binding signal (z-score) [7]: 1.2 | glycan array binding signal (z-score) [8]: -0.287 | glycan array binding signal (z-score) [9]: -0.666 | glycan array binding signal (z-score) [10]: -0.748 | glycan array binding signal (z-score) [11]: -0.674 | glycan array binding signal (z-score) [12]: -0.852 | glycan array binding signal (z-score) [13]: -0.917 | glycan array binding signal (z-score) [14]: -0.45 | glycan array binding signal (z-score) [15]: -0.289 | glycan array binding signal (z-score) [16]: -1.09 | glycan array binding signal (z-score) [17]: -0.304 | glycan array binding signal (z-score) [18]: -0.235 | glycan array binding signal (z-score) [19]: -0.701 | glycan array binding signal (z-score) [20]: -0.106 | glycan array binding signal (z-score) [21]: -0.565 | glycan array binding signal (z-score) [22]: -0.631 | glycan array binding signal (z-score) [23]: -0.063 | glycan array binding signal (z-score) [24]: -0.078 | glycan array binding signal (z-score) [25]: -0.045 | glycan array binding signal (z-score) [26]: -0.262 | glycan array binding signal (z-score) [27]: -0.492 | glycan array binding signal (z-score) [28]: -0.291 | glycan array binding signal (z-score) [29]: -0.179 | glycan array binding signal (z-score) [30]: -0.414 | glycan array binding signal (z-score) [31]: 0.25 | glycan array binding signal (z-score) [32]: 0.465 | glycan array binding signal (z-score) [33]: 0.284 | glycan array binding signal (z-score) [34]: -0.536 | glycan array binding signal (z-score) [35]: -0.052 | glycan array binding signal (z-score) [36]: -0.774 | glycan array binding signal (z-score) [37]: -0.431 | glycan array binding signal (z-score) [38]: -0.49

— the supplement of paper PMC8728848
